Experimental data published in PubChem BioAssay AID1159614 (National Center for Advancing Translational Sciences (NCATS), 2016).
Out of some 45,000 compounds screened, about 65 (0.1%) were called active. Calls follow the shape of the dose curve; as a rule, active = well fitted activation curve with a large enough effect; inconclusive = small, poorly fitted or top-dose-only effect; inactive = no such curve, though single readings can be large or run the other way. Some of the results follow.

biological target: Galactocerebrosidase (Homo sapiens) (UniProt P54803); assay: A Novel Cell-Based Assay to Identify Small Molecules for B -Galactocerebrosidase; conditions: 145M-Twi-hGALC-G270D cells (Twitcher mouse brain line with human GALC G270D), HMU-beta-Gal fluorescence, 48 h; series mostly up to 57.5 µM; activation: at the top concentration; also: 0% is about no effect; nearly all actives have a fitted effect of over 65% in size
Procedure, shortened: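 Fluorogenic HMU-b-Gal hydrolysis (0.1 mM final, pH 5.2 citrate-phosphate with 1 mg/mL sodium taurocholate; carbonate stop buffer) measures mutant GALC activity after compound treatment of live 145M-Twi Twitcher brain cells stably carrying human GALC-G270D, with wild-type GALC line alongside; activation sought.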

Chain of UniProt P54803 (P54803 whole entry, looked up): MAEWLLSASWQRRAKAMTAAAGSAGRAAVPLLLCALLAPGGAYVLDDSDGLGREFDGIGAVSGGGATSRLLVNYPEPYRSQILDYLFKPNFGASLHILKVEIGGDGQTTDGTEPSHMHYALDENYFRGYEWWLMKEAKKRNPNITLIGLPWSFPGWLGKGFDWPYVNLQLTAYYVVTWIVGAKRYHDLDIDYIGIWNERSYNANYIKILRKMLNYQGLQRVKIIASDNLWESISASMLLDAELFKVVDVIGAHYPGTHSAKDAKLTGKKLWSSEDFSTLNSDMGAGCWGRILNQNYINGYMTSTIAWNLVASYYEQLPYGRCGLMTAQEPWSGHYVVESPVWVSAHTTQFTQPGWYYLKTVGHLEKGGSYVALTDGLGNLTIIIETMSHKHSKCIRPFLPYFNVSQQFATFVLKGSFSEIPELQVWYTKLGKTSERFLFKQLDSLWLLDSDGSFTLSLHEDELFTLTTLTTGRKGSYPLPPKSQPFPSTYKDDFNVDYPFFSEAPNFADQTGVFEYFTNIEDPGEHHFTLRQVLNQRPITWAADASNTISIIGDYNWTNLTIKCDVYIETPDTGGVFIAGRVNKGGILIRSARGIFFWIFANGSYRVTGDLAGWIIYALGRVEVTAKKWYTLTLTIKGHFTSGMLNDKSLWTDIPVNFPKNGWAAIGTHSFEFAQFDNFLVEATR

activation, inactive:
O=C(Nc1cccc(O)c1)c1cc(-c2ccccc2F)no1 -12.5%
CC(CNC(=O)c1csc2c1CCCCC2)c1ccccc1 (centres undefined) -20.9%
Cc1cccc(NC(=O)CN2C(=O)CC(c3ccccc3)Sc3ccccc32)c1 (centres undefined) -19.4%
Cc1ccccc1NC(=O)Cn1nnc(C(=O)NCc2cccs2)c1N -9.97%
Cc1ccc(NC(=O)CCc2c(C)nc3ncnn3c2C)cc1Cl -16.3%
CCOC(=O)C1CCCN(C(=O)Cn2ncc3c4ccccc4n(C)c3c2=O)C1 (centres undefined) 1.04%
COc1cc(NC(=O)c2cc(S(=O)(=O)N3CCC(C)CC3)cn2C)cc(OC)c1OC -12.9%
COc1ccc(CCN2C(=O)N(c3ccc(C)cc3)C(=O)C2CC(=O)Nc2ccc(OC)cc2)cc1 (centres undefined) -17.5%
O=C(NCc1cccc(Cl)c1)c1ccc2c(Cl)c3c(nc2c1)CCCC3 -9.03%
Cc1cccc2c(=O)cc(CSc3ccccc3NC(=O)c3cccc(Br)c3)[nH]c12 -14.1%
CCc1ccc(S(=O)(=O)Nc2cccc(-c3ccc(OC)nn3)c2)s1 -5.1%
COc1ccc(NC(=O)CSc2nc3nc(C)cc(C)n3n2)cc1OC -18.6%
O=C(Nc1cccc(F)c1)C1CCN(S(=O)(=O)c2ccc3[nH]c4c(c3c2)CCCCC4)CC1 -11.8%
COc1cc(O)ccc1-c1nc2cc(C)ccn2c1Nc1ccccc1C -14.2%
O=C(CSc1ncc(CO)n1Cc1ccc(F)cc1)NCc1ccco1 0.431%
COc1cc(C(=O)NCC(c2ccc3c(c2)OCO3)N2CCN(C)CC2)cc(OC)c1OC (centres undefined) -19.4%
COc1cccc2c1cc1c(=O)n(CC(=O)NCc3ccc(N(C)C)cc3)nc(C)n12 -6.57%
CC(C)c1ccc2oc(-c3cc(NC(=O)c4cccnc4)ccc3Cl)nc2c1 -1.79%
Cc1ccc(N2CC(C(=O)NCc3nnnn3-c3ccc(C)c(C)c3)CC2=O)cc1C (centres undefined) -14.7%
O=c1n(Cc2ccc(Cl)cc2)nc2n1-c1ccccc1OC2 -12.3%
CCC1CCCCN1CCCNC(=O)c1c(C)oc2ncn(CC(C)C)c(=O)c12 (centres undefined) -4.14%
COc1cccc(NC(=O)c2sc3nc(C)c(C(=O)Nc4ccc(C)cc4C)c(-c4ccc(C)o4)c3c2N)c1 -9.49%
COC(=O)C1=C(C)NC(C)=C(C(=O)OCC(C)=O)C1c1ccccc1[N+](=O)[O-] (centres undefined) -2.08%
CCOc1ccccc1NC(=O)NCc1noc2ccc(C)cc12 -16%
COC(=O)c1ccccc1NC(=O)CCC(=O)N1CC(C)Sc2ccccc21 (centres undefined) -2.96%
COC(=O)C(NC(=O)CCc1c(C)nc2cc(-c3cccc(F)c3)nn2c1C)C(C)C (centres undefined) -12.4%
Cc1ccc2c(=O)cc(C(=O)Nc3ccc(S(=O)(=O)N4CCCCC4)cc3)oc2c1 -19.1%
COc1cccc(N2CCN(C(=O)c3cc4c(=O)n(Cc5cccnc5)ccc4nc3C)CC2)c1 -5.71%
COc1ccc(NC(=O)Cn2c(SCc3ccc(F)cc3)nc3cccnc32)c(OC)c1 -9.7%
CCOc1ccc(C(=O)Nc2nc(-c3ccc(Br)cc3)ns2)cc1 -10.8%
CC1CCn2c(nc3cc(C(=O)NCCc4ccccc4)ccc32)C1 (centres undefined) -27.3%
Cc1ccc(NC(=O)CSc2cn(CC(=O)N3CCOCC3)c3ccccc23)cc1Cl -3.51%
COc1ccc(NC(=O)C2CCCN(c3cnccn3)C2)c(OC)c1 (centres undefined) 0.179%
CCC(Cc1ccccc1)NC(=O)CCS(=O)(=O)c1cc2c(cc1Cl)NC(=O)CO2 (centres undefined) -17.1%
CCOc1ccc(CNC(=O)Nc2ccc3c(c2)N(C)C(=O)c2ccccc2S3)cc1 -28%
O=S(=O)(c1ccccc1)c1nnn2c1nc(N1CCN(c3ccccc3)CC1)c1cc(Cl)ccc12 -12%
COc1ccc2sc(N(Cc3cccnc3)C(=O)C3COc4ccccc4O3)nc2c1 (centres undefined) -1.6%
Cc1ccc(-n2ncc3c(NC4CCCC4)ncnc32)cc1 -9.24%
CCOC(=O)/C(C#N)=C/c1ccc(-c2ccccc2)o1 -7.03%
N=C(N)c1ccc(OCCCCCOc2ccc(C(=N)N)cc2)cc1 -18.3%
COc1ccc2sc(N(Cc3cccnc3)C(=O)c3cccs3)nc2c1 -14.4%
Cc1ccc2c(c1)C(c1ccccc1)N(C(=O)c1ccc(S(=O)(=O)N3CCCC3)cc1)CC(=O)N2 (centres undefined) -12.7%
Cn1c(=O)c2nc3ccc(NC(=O)C(F)(F)F)cc3nc2n(C)c1=O -11.3%
Cc1ccc(NC(=O)CN2C(=O)CSc3ccc(S(=O)(=O)N(C)C)cc32)c(C)c1 -5.67%
Cc1nc(SCc2ccccc2Cl)c(C#N)c(C)c1C -14.7%
Cc1cc(C)cc(NC(=O)c2sc3nc4n(c(=O)c3c2C)N=C(c2ccc(F)cc2)CS4)c1 -15.6%
O=C(Cn1cc2c(n1)CCCC2)Nc1cc(C(F)(F)F)ccc1Cl -11.3%
CCCn1cc(S(=O)(=O)c2ccccc2)c(=O)c2cc(F)c(N3CCCCCC3)cc21 -7.46%
COc1cccc(-c2nn(C)c3sc(C(=O)NCCc4cccc(C)c4)cc23)c1 -4.8%
Cc1nnc(N2CCN(c3cccc(Cl)c3)CC2)c2c1nnn2Cc1ccc(F)cc1 -9.67%
CCc1cccc(NC(=O)CSc2n[nH]c(-c3ccccc3Cl)n2)c1 -14.6%
O=C(Nc1ccc2nc(SCCOc3ccccc3Cl)sc2c1)c1ccco1 -8.35%
Cn1c(NCCN(CCO)CCCc2ccc([N+](=O)[O-])cc2)cc(=O)n(C)c1=O -16.8%
CCOC(=O)C1CCCN(C(=O)Cn2ncc3c(C)n(Cc4ccc(F)cc4)c(C)c3c2=O)C1 (centres undefined) -3.1%
CCOc1ccc(OCC)c(NC(=O)c2cnn(-c3ccc(F)cc3)c2C2CCN(C(=O)OC(C)(C)C)CC2)c1 -15.2%
CCCNC(=O)Cn1ncc2c3ccccc3n(CCC)c2c1=O -4.57%
COc1ccc(-c2ccc(-c3noc(-c4cc(OC)cc(OC)c4)n3)c(OC)n2)cc1 -13.7%
COC(=O)Nc1nc2ccc(C(=O)c3ccccc3)cc2[nH]1 -9.67%
CCOc1ccc(-n2c(C)nc3cc(C(=O)NCc4ccc(C)cc4)ccc32)cc1 -34.9%
COc1ccc(-n2ccnc(NCc3cccs3)c2=O)cc1 -6.66%
CCOc1ccc2c(c1)c(=O)c(C(=O)c1ccc3c(c1)OCO3)cn2Cc1cccc(F)c1 -12.2%
O=c1c2c3c(sc2nnn1Cc1ccc(F)cc1)CCCC3 -17.6%
CC1CCCN(c2nc(-c3ccccc3O)nc3ccccc23)C1 (centres undefined) -7.35%
CCn1c(=O)cc(SCC(=O)Nc2cc(Cl)ccc2OC)c2ccccc21 -11.1%
Cc1ccc(C(=O)Nc2nnc(S(=O)(=O)N(C)Cc3ccc(F)cc3)s2)cc1 -4.43%
CCOc1ccc(-c2nnc(SCC(=O)Oc3ccccc3)o2)cc1 -1.83%
CCN(C(=O)Cn1nc(Cc2ccncc2)c2ccccc2c1=O)c1cccc(Cl)c1 -11.7%
COc1ccc(CCNC(=O)CN2C(=O)COc3ccc(C)cc32)cc1OC -3.82%
COc1ccccc1N(CC(=O)N1CCC(C)CC1)S(=O)(=O)c1ccc(C)cc1 -30.8%
c1ccc2sc(SSc3nc4ccccc4s3)nc2c1 -11.7% [at 23.8 µM]
CCCCN(CC)CCCNC(=O)CN1C(=O)CSc2ccc(S(=O)(=O)N3CCOCC3)cc21 -10.9%
CCOC(=O)c1cc(-c2ccc(OC)c(S(=O)(=O)NC3CCCCC3)c2)on1 -15.4%
CCn1nc(C)c(CCN(C)C(=O)Nc2ccc(C)c(Cl)c2)c1C -1.67%
Cc1ccc(C(=O)NCc2ccc3c(c2)CCN3C(=O)c2ccc(C)cc2)cc1 -17.2%
COCCNC(=O)c1ccc(-n2c(-c3ccccc3)cc3c2CCC(C)C3)cc1 (centres undefined) -16%
CCc1ccc(Cn2c(CNS(=O)(=O)c3ccc([N+](=O)[O-])cc3)nc3cccnc32)cc1 -23.8%
O=C(Nc1ccc2nc3n(c(=O)c2c1)CCCCC3)C(=O)Nc1ccccc1F -2.47%
COc1cc(NC(=O)c2nn(C)c3c2CS(=O)(=O)c2ccccc2-3)cc(OC)c1 -11.4%
COCCCNC(=O)c1c(-c2ccccc2)c(-c2ccccc2)nn(C)c1=O -3.09%
Cc1cccc(Nc2nn3c(=O)c4cc5c(cc4nc3s2)OCO5)c1 -8.61%
COc1cc(N2C(=O)CSC23C(=O)N(Cc2cccc(F)c2)c2ccccc23)cc(OC)c1OC (centres undefined) -28.2%
COc1ccc(NC(=O)c2sc3nc4c(cc3c2N)CCCCCC4)c(OC)c1 -23.8%
CCOC(=O)Cn1c(=O)n(CC2CCCO2)c2nc(-c3ccc(OCC)cc3)nc(C(N)=O)c21 (centres undefined) -10.2%
CCN(CC)CCNC(=O)CN1C(=O)COc2ccc(S(=O)(=O)N3CCOCC3)cc21 2.76%
Cc1cc(Nc2cccc(Cl)c2)nc2ccc(NC(=O)Cc3ccc(Cl)cc3)cc12 -8.24%
Cc1ccc(-n2ncc(C(=O)NCc3ccccc3)c2C2CCN(C(=O)OC(C)(C)C)CC2)cc1 5.42%
COc1ccc(CCNC(=O)c2ccc3c(c2)CCN3S(=O)(=O)c2ccccc2)cc1OC -3.62%
CCOc1ccccc1NC(=O)Cn1c(=O)n(Cc2ccccc2)c(=O)c2c1c1cc(C)ccc1n2C -2.26%
COc1ccccc1OCc1nnc(-c2ccccc2)o1 -23.5%
CCCCOC(=O)c1ccc(OC(=O)c2sc3ncn(Cc4ccccc4Cl)c(=O)c3c2C)cc1 -4.22%
CCOc1ccc(CNCCCSc2nnnn2C)cc1OC -15.6%
O=C(CSc1nc(=O)n(Cc2ccco2)c2c1CCC2)Nc1cccc(F)c1 -19.1%
COc1cccc(CNC(=O)Cc2csc3nc(-c4ccccc4)cn23)c1 -3.29%
Cc1ccc(Cl)cc1Nc1sc(C(=O)c2ccc(F)cc2)c(N)c1S(C)(=O)=O -10.8%
COc1ccccc1N1CCN(C(c2ccc(Cl)cc2)c2nnc(-c3cccc(F)c3)o2)CC1 (centres undefined) -15.8%
O=C(Nc1ccc(Cl)c(-c2nc3ccccc3o2)c1)c1ccc(-c2cccc([N+](=O)[O-])c2)o1 -8.61%
Cc1ccccc1Nc1c(-c2ccc(Br)cc2O)nc2sccn12 -7.28%
CCOc1ccc(NC(=O)Cn2cc(C(=O)c3ccc(OC)cc3)c(=O)c3cc4c(cc32)OCO4)cc1 -22%
COc1ccc(CC(=O)Nc2sc3c(c2C(=O)Nc2cccc(C)c2)CCCCC3)cc1 -23.8%
